{
  "source": "PubChem BioAssay AID686970",
  "about": "(National Center for Advancing Translational Sciences (NCATS), 2013)",
  "note": "Screen size: about 360,000 compounds; about 6,000 (1.7%) were called active. The inconclusive results got no clear call from the source; some entries with a clear call stand among them for comparison. Calls follow the shape of the dose curve; as a rule, active = well fitted cell-killing curve with a large enough effect; inconclusive = small, poorly fitted or top-dose-only effect, or effect the other way; inactive = flat fitted curve, though single readings scatter. Potencies of inconclusive entries are left out as doubtful fits. Potency is read from the fitted curve at half-maximal effect; tags tell the direction and shape of the fitted curve.",
  "data": [
    {"assay": "qHTS for induction of synthetic lethality in tumor cells producing 2HG: qHTS for the HT-1080-NT fibrosarcoma cell line;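 also: NT is the 2HG producing partner of a matched IDH1 knockdown line; nearly all actives have a fitted effect of over 55% in size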;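 as to activity, negative = less viability: 0% = DMSO-treated cells and -100% = media-only wells without cells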", "details": "HT-1080-NT fibrosarcoma viability, CellTiter-Glo ATP luminescence, 48 h; activity, negative = less viability: at 46.1 µM (top of the series) unless noted", "in_short": "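Luminescent CellTiter-Glo readout after 48 hours of compound exposure at 37 degrees C defined viability of HT-1080-NT cells. Activity was normalized to DMSO wells and cell-free media wells; concentration-response curves were fitted and assigned curve classes.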", "values": [
      {"smiles": "CCOc1cc(C2/C(=C(/O)c3ccc(S(=O)(=O)N4CCCCC4)cc3)C(=O)C(=O)N2CCOC)ccc1O", "note": "(configuration not stated)", "Potency": "inconclusive [rising, single point]"},
      {"smiles": "Cc1oc(-c2ccccc2F)nc1CS(=O)(=O)CC(=O)NCCN(C)C1CCCCC1", "Potency": "inconclusive [cytotoxic, single point]"},
      {"smiles": "COc1ccc(-c2oc3c(c2C#CC2(O)CCCCC2)C(OC)CCC3)cc1", "note": "(configuration not stated)", "Potency": "inconclusive [cytotoxic, single point]"},
      {"smiles": "COc1ccc(CNC(=O)Nc2nc(C(N)Cc3ccc(C(F)(F)F)cc3)cs2)cc1", "note": "(configuration not stated)", "Potency": "inconclusive [cytotoxic, single point]"},
      {"smiles": "O=C(Cc1cccs1)N/N=C\\c1ccc([N+](=O)[O-])s1", "Potency": "inconclusive [cytotoxic, single point]"},
      {"smiles": "COc1cccc(NC(=O)N2CCc3nc(Nc4ccc(C(C)C)cc4)ncc3C2)c1", "activity, negative = less viability": "inconclusive: -71.3%"},
      {"smiles": "CN(CC(=O)Nc1ccc(Cl)cc1)C(=O)c1ccc(S(=O)(=O)Nc2ccccc2)cc1", "Potency": "active: 13 µM"},
      {"smiles": "Cc1ccc(NC(=O)c2cc3ccccc3o2)cc1S(=O)(=O)N(C)C", "Potency": "inconclusive [rising, partial curve]"},
      {"smiles": "Cc1cnc(=O)[nH]c1SCC(=O)c1ccc(F)cc1", "activity, negative = less viability": "inactive: -28.1%"},
      {"smiles": "FC(F)Sc1ccc(NC(=S)NCc2ccccc2)cc1", "Potency": "inconclusive [cytotoxic, single point]"},
      {"smiles": "NC(Cc1ccc(C(F)(F)F)cc1)c1csc(Nc2ccccn2)n1", "note": "(configuration not stated)", "Potency": "active: 20.6 µM"},
      {"smiles": "COc1ccc(-c2ccc(C(=O)NCCN3CCOCC3)c3occc23)c(C)c1", "Potency": "active: 16.4 µM"},
      {"smiles": "COc1cc(Cl)c(C)cc1NC(=O)c1ccccc1NC(=O)CN1CCN(c2ccccn2)CC1", "Potency": "inconclusive [cytotoxic, single point]"},
      {"smiles": "O=c1cc(S(=O)(=O)Cc2ccccc2)[nH]c(=O)[nH]1", "activity, negative = less viability": "inactive: 12%"},
      {"smiles": "CCOC(=O)c1oc2ccc(/C=N/O)c(Cl)c2c1C", "Potency": "inconclusive [cytotoxic, single point]"},
      {"smiles": "O=C(O)COc1ccc2c(c1)O/C(=C\\c1ccco1)C2=O", "activity, negative = less viability": "inactive: 3.63%"},
      {"smiles": "CCOC(=O)C1CCN(S(=O)(=O)c2ccc(Cl)cc2)CC1", "activity, negative = less viability": "inactive: 6.49%"},
      {"smiles": "CC(C)c1ccc(-c2cc(C(=O)N3N=C(C(F)F)CC3(O)C(F)F)c3ccccc3n2)cc1", "note": "(configuration not stated)", "Potency": "inconclusive [cytotoxic, single point]"},
      {"smiles": "COc1ccccc1C(C)NC(=O)c1ccc(C)o1", "note": "(configuration not stated)", "Potency": "inconclusive [cytotoxic, single point]"},
      {"smiles": "COc1ccc(-c2nnc(NC(=O)c3cccs3)s2)c(OC)c1", "activity, negative = less viability": "inactive: 7.89%"},
      {"smiles": "COc1cc(C(=O)Nc2ccc3c(c2)ncn3C)cc(OC)c1OC", "Potency": "inconclusive [cytotoxic, full curve]"},
      {"smiles": "Cn1cnc2c(N/N=C/c3cccs3)ncnc21", "Potency": "inconclusive [cytotoxic, single point]"},
      {"smiles": "COc1ccc(-c2nnc(N3CCC(C)CC3)c3ccccc23)cc1", "activity, negative = less viability": "inactive: 6.65%"},
      {"smiles": "C=C(C)COc1ccc(-c2nc(N)ncc2-c2ccc(Br)cc2)c(O)c1", "Potency": "inconclusive [cytotoxic, single point]"},
      {"smiles": "COCCCNC(=O)CCc1c(C)nc2c(c(C)nn2-c2ccccc2)c1C", "activity, negative = less viability": "inactive: -2.84%"},
      {"smiles": "CCCCCCC1CCC(C(=O)NC(CCSC)C(=O)NC(C(=O)OC)C(C)C)CC1", "note": "(configuration not stated)", "Potency": "inconclusive [cytotoxic, single point]"},
      {"smiles": "C#CCNC(=O)C[C@@H]1C[C@@]2(C(=O)OCC)CCCC=C2N(CCCCCCCC)C1=O", "Potency": "inconclusive [cytotoxic, single point]"},
      {"smiles": "Cc1cc(OCC(=O)Nc2ccccn2)c2c(C)cc(=O)oc2c1", "activity, negative = less viability": "inactive: 18.2%"},
      {"smiles": "Cc1cc(C(C)(C)C)cc(C)c1Cn1c2[n+](c3ccc(C(F)(F)F)cc31)CCCCC2", "Potency": "active: 14.6 µM"},
      {"smiles": "O=C(CN(Cc1ccccc1F)S(=O)(=O)c1ccc(Cl)cc1)NCC1CCCO1", "note": "(configuration not stated)", "activity, negative = less viability": "inactive: 3.79%"},
      {"smiles": "Cc1ccc(C(C)NC(=O)c2ccncc2)cc1C", "note": "(configuration not stated)", "activity, negative = less viability": "inactive: -4.46%"},
      {"smiles": "CCCOc1ccccc1NC(=O)/C=C/C(N)=O", "Potency": "inconclusive [cytotoxic, single point]"},
      {"smiles": "O=C(/C(=C/O)N=Nc1ccccc1)c1ccncc1", "Potency": "inconclusive [cytotoxic, single point]"},
      {"smiles": "CCOc1cc(CNc2ccc(O)cc2)cc(Br)c1OCc1ccccc1F", "Potency": "inconclusive [cytotoxic, single point]"},
      {"smiles": "COc1ccc(NC(=O)Cn2nnc(C(=O)NCc3cccs3)c2N)c(OC)c1", "Potency": "inconclusive [cytotoxic, single point]"},
      {"smiles": "CCCC(=O)OCCNc1cc(Sc2nc3ccccc3[nH]2)c2nonc2c1[N+](=O)[O-]", "Potency": "active: 20.6 µM"},
      {"smiles": "Nc1cc(=O)nc(SCC(=O)NCc2ccccc2)n1CCc1ccccc1", "Potency": "inconclusive [rising, full curve]"},
      {"smiles": "CCOc1ccc(S(=O)(=O)NCc2ccccn2)cc1NC(=O)c1ccccc1", "Potency": "active: 2.59 µM"},
      {"smiles": "Cc1ccc(-n2cc(CN3CCC(O)(c4ccccn4)CC3)c(-c3ccc(F)cc3)n2)cc1", "Potency": "active: 16.4 µM"},
      {"smiles": "Cc1cccc(C(=O)Nc2nnc(SCC(=O)Nc3ccc4c(c3)oc3ccccc34)s2)c1", "Potency": "inconclusive [cytotoxic, single point]"},
      {"smiles": "O=C(O)/C=C/C(=O)Nc1ccc(S(=O)(=O)Nc2nccs2)cc1", "Potency": "inconclusive [rising, partial curve]"},
      {"smiles": "CC(C)N(C(=O)CSc1nc2ccccc2n1-c1ccccc1)C(C)C", "Potency": "inconclusive [cytotoxic, single point]"},
      {"smiles": "Cc1ccc(C23CC4CC(CC(NC(=O)N5CCN(C)CC5)(C4)C2)C3)cc1", "Potency": "inconclusive [cytotoxic, single point]"},
      {"smiles": "Cc1cc(C)n2[nH]c(=O)c(N=Nc3ccccc3)c2n1", "Potency": "inconclusive [rising, partial curve]"},
      {"smiles": "COc1cccc(CC(=O)n2nc(N)c3cc4ccc(OC)cc4nc32)c1", "activity, negative = less viability": "inactive: 3.66%"},
      {"smiles": "CSc1nsc(SCC(=O)Nc2ccccc2F)n1", "activity, negative = less viability": "inactive: 1.49%"},
      {"smiles": "CN(C)c1ccnc(Oc2ccc(C(C)(C)C)cc2)c1C#N", "Potency": "inconclusive [cytotoxic, single point]"},
      {"smiles": "CCOc1cccc(C(=O)Nc2ccc(NC(=O)c3cc4ccccc4o3)c(OC)c2)c1", "Potency": "inconclusive [cytotoxic, single point]"},
      {"smiles": "Cc1ccc(-c2nn(-c3ccccc3)cc2/C=N/NS(=O)(=O)c2ccccc2)cc1", "Potency": "inconclusive [cytotoxic, partial curve]"},
      {"smiles": "C=C[C@@H]1c2ccccc2N(S(=O)(=O)c2ccc(C)cc2)[C@H](c2ccc(OC(C)=O)cc2)C1(C#N)C#N", "Potency": "inconclusive [cytotoxic, single point]"},
      {"smiles": "CCOC(=O)C1(Cc2ccccc2C(F)(F)F)CCN(C2CCN(C(C)C)CC2)CC1", "Potency": "inconclusive [cytotoxic, single point]"},
      {"smiles": "C=CCc1cccc(/C=N/NC(=O)c2ccc3nc[nH]c3c2)c1O", "Potency": "inconclusive [cytotoxic, partial curve]"},
      {"smiles": "CCN(CC)CCNCC(O)(c1ccc(Cl)cc1)c1ccc(Cl)cc1", "Potency": "active: 20.6 µM"},
      {"smiles": "CCCNC(=O)C1(C)CCCN(C(=O)c2cc3ccccc3s2)C1", "note": "(configuration not stated)", "Potency": "inconclusive [rising, single point]"},
      {"smiles": "Cc1ccc([C@@H]2CC=C(C(=O)O)[C@H](c3cccc(F)c3)N2S(=O)(=O)c2ccccc2C)cc1", "activity, negative = less viability": "inactive: -11.5%"},
      {"smiles": "O=C(NNc1c2ccccc2nc2ccccc12)c1ccc(O)cc1", "activity, negative = less viability": "inactive: -7.09%"},
      {"smiles": "COc1ccccc1OCc1ccc(C(=O)N2N=C(C(F)F)CC2(O)C(F)F)o1", "note": "(configuration not stated)", "activity, negative = less viability": "inactive: 4.89%"},
      {"smiles": "COc1ccc(S(=O)(=O)N2CCOCC2)cc1C(=O)N(C)CCOc1ccc(Cl)cc1", "activity, negative = less viability": "inactive: -10.9%"},
      {"smiles": "C[C@@H]1CN([C@H](C)CO)S(=O)(=O)c2ccc(Br)cc2O[C@@H]1CN(C)Cc1ccc(-c2ccccc2)cc1", "Potency": "active: 18.4 µM"},
      {"smiles": "CCCOc1ccc2ccccc2c1/C=N/n1cnnc1", "Potency": "inconclusive [cytotoxic, single point]"},
      {"smiles": "CCOC(=O)C1=C(C)N=C2c3ccccc3C(=O)C2C1c1ccc(Cl)cc1", "note": "(configuration not stated)", "Potency": "inconclusive [cytotoxic, single point]"},
      {"smiles": "O=C(NCCCN1CCc2ccccc2C1)Nc1ccc(Cl)cc1", "Potency": "inconclusive [cytotoxic, single point]"},
      {"smiles": "CCc1nc2ccc(C(=O)Nc3ccc4c(c3)OCC(=O)N4)cn2c1N(CC)Cc1cccc(Br)c1", "Potency": "inconclusive [cytotoxic, partial curve, poor fit]"},
      {"smiles": "O=C(O)c1cc2cc(F)ccc2[nH]1", "Potency": "inconclusive [rising, full curve, poor fit]"},
      {"smiles": "c1ccc2ccccc2c1", "activity, negative = less viability": "inconclusive: 25.6%"},
      {"smiles": "COc1cccc(CN(C)C(=O)CNC(=O)c2ccc(-c3ccccc3)cc2)c1OC", "Potency": "inconclusive [cytotoxic, partial curve]"},
      {"smiles": "NC(Cc1ccc(F)cc1)c1csc(Nc2cc(NCc3ccco3)ncn2)n1", "note": "(configuration not stated)", "Potency": "active: 18.4 µM"},
      {"smiles": "O=C(c1cccnc1)N1CCN(c2ccc(Cl)cc2)CC1", "activity, negative = less viability": "inactive: 0.329%"},
      {"smiles": "Oc1ccc(C(=S)N2CCN(c3cccc(Cl)c3)CC2)cc1", "Potency": "inconclusive [cytotoxic, single point]"},
      {"smiles": "O=c1c2c([nH]c3ccccc13)CCCCC2", "activity, negative = less viability": "inconclusive: 11.7%"},
      {"smiles": "CCCc1cc(=O)[nH]c(SCC(=O)c2c(N)n(C3CC3)c(=O)[nH]c2=O)n1", "Potency": "inconclusive [cytotoxic, single point]"},
      {"smiles": "CC1CC2(CC(CN(C3CCCCC3)C3CCCCC3)OC2=O)C(=O)O1", "note": "(configuration not stated)", "Potency": "inconclusive [rising, partial curve]"}
    ]}
  ]
}
